Results as given in the supplement of paper PMC11417369.
± gives the standard deviation of the averaged measurements. This is one part of the list.

Tested on: PfAP2-I AP2 domain 3 (GST-tagged)
Assay: gcPBM binding intensity (ln(normalized median fluorescence intensity)); higher = stronger DNA binding
Outline: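 An Agilent 4 × 180k array carrying primer-extended double-stranded 36-bp intergenic genomic probes and negative controls received GST-tagged P. falciparum DNA-binding domains expressed in E. coli, about 25 μg on average, for 1 h. The binding buffer contained 1× PBS, 1% milk, 0.2 mg/ml BSA, 0.5% salmon testes DNA and 0.03% Triton X-100. Binding intensity is the top Masliner-normalised natural-log median intensity across replicate spots of either probe orientation, read after Alexa488 anti-GST antibody staining and a 488 nm scan.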

Row | Sequence | gcPBM binding intensity (ln)
1 | AAAATTTAGCAAAGGTGTACAAAAGATAATTAGAGT [XGTACX_site3467] | 8.56 ± 0.5
2 | TTTTTTAAATATATTTGTACATATGAAATAAAGATA [XGTACX_site3841] | 8.05 ± 0.085
3 | AAAATTATTATGAAAAGTACAAATATGTAAACATAC [XGTACX_site5517] | 7.67 ± 0.53
4 | TTTTTCACATCTATAAATCATCTAATCAATATTTTT [GTGCAC_negctrl_site444] | 7.78 ± 0.38
5 | ATTCTAATTAGTAAAGTGCAGATAAAATGATGCCCT [GTGCAC_site9578] | 9.3 ± 0.014
6 | ATATGTTTATTTATTTGTACTTATCATATAATAACA [XGTACX_site5486] | 7.92 ± 0.5
7 | TGTATATTTTAGTGATGTACTAATATTATTACTAAT [XGTACX_site3952] | 7.72 ± 0.32
8 | TTAGAAAGAATGTATTGTACATATATATTATATATA [XGTACX_site7045] | 7.66 ± 0.36
9 | TGCTTAGCACACTATCTACTTCCTTTGTTTCATAAA [GTGCAC_negctrl_site495] | 8.55 ± 0.26
10 | TTCATTTATATAATCACACATTTTATCATCTATGTT [CACACA_site4327] | 7.74 ± 0.74
11 | TGAGTATATAAATACACACACATATATATATTTTAA [CACACA_site5130] | 7.63 ± 0.32
12 | TTTTATTTTTAAGGATGTACTCAATTGTTTATATAC [XGTACX_site3965] | 7.79 ± 0.4
13 | TTTTTTTTTAATAAAATTATAATAAATATGAAATTA [XGTACX_negctrl_site369] | 7.5 ± 0.15
14 | ATATATATATATATATGTACACATATATATACTCAC [XGTACX_site8043] | 9.19 ± 0.37
15 | GCACATATGAATATAATACACACTTGTATTATTAAT [CACACA_site1841] | 8.1 ± 0.52
16 | ATTTTATATACAAAATGTACATATTTATTATATATG [XGTACX_site6732] | 7.74 ± 0.5
17 | AAGGATACGCAAAAATGTACAAAATGCTTATAAATA [XGTACX_site984] | 7.75 ± 0.54
18 | GGAGCTATCTCCTGCACACACAATTTTTTTTTTTTT [CACACA_site2240] | 8.23 ± 0.78
19 | ATTAAAATCATATACACACCCATATATATATATATA [CACACA_site5050] | 9.36 ± 0.37
20 | ATACATATCTACCTATGTACATAATACAACAAAGAT [XGTACX_site323] | 7.95 ± 0.57
21 | GAATAAATACCGGTGTGTACTTAAATCATTCACGAA [XGTACX_site3174] | 7.92 ± 0.3
22 | CTTATATTAAGTATTACACACATATATATAAATGCA [CACACA_site4581] | 7.79 ± 0.33

Row | Sequence | gcPBM binding intensity (ln)
23 | CCTAAATAAATGGACACACACATATATATATATATA [CACACA_site1439] | 9.47 ± 0.54
24 | TAGAAATAAGAAAAATGTACATATAATATTGAAAGT [XGTACX_site3043] | 8.29 ± 0.67
25 | TATATATATATAAGAAGTACAGAAAATTAGAAAAAA [XGTACX_site8773] | 9.27 ± 0.15
26 | TTTTACGTAATATTTATACACACGAACCTTATTAAT [CACACA_site2300] | 7.79 ± 0.59
27 | AGTCTATAGTAATTTACACACAAAAAAATATCAGGA [CACACA_site7620] | 7.95 ± 0.7
28 | AGTAGTCTGGAGAAAAGTACATAGTATCTGGTAGCT [XGTACX_site2027] | 7.98 ± 0.52
29 | TTTATTGATAATATATATATATATATATATATATAT [GTGCAC_negctrl_site552] | 9.27 ± 0.6
30 | AATATCTTAGTGGATACACACATATAAATGGGTATT [CACACA_site4426] | 7.58 ± 0.53
31 | TCATATGTTAAACACACACACACACCGAAAAAAACA [CACACA_site9067] | 8.05 ± 0.39
32 | AAAAAATTAAAAAAAAAAAAATCATGAAAAAAACAA [CACACA_negctrl_site1673] | 7.63 ± 0.47
33 | GTTTTATTCCATTATTGTACTTAATATAAAGAAACT [XGTACX_site3054] | 8.18 ± 0.38
34 | ATAAATTGAAGTAAATTTGACCTTTTTTTTTTTTTT [GTGCAC_negctrl_site354] | 7.97 ± 0.64
35 | ATAATAATATGTGGGTGTACATATACACATATATAT [XGTACX_site4356] | 8.21 ± 0.73
36 | AGAACATGCAAACATGCACACAGAAAAAAAAAATAT [CACACA_site8442] | 8.57 ± 0.25
37 | ATGTTACACAGACACACACACATAAAAAAACAAAAA [CACACA_site7516] | 7.95 ± 0.43
38 | TTTTTAAAAAATAAGAAAAAATAAATATATTACAAA [XGTACX_negctrl_site191] | 7.58 ± 0.54
39 | CAGCATGGTATACCTATAAAATATATATACTAACAT [TGCATGCA_negctrl_site51] | 7.6 ± 0.51
40 | CACATACATATATATACACACAAATATATATACGCA [CACACA_site791] | 7.82 ± 0.4
41 | GGCATATATACATATGGTACACATTTATTAATACCG [XGTACX_site2710] | 7.7 ± 0.52
42 | AGGATATAAAGTTGTGCATGTCAAGTGCACCGTATT [TGCATGCA_site451] | 11 ± 0.35
43 | AGAAAAATCTAAATTCGTACATAACGTTTAAACATA [XGTACX_site2511] | 7.47 ± 0.45
44 | GATGTGTATATTAAATGTACGAACAGTTGAGGCGAA [XGTACX_site7853] | 8.29 ± 0.36

Row | Sequence | gcPBM binding intensity (ln)
45 | TTTTTATAAAAATGAACACACACATATATATATATA [CACACA_site9160] | 9.43 ± 0.69
46 | AATAACACTATTTAACGTACAAAAAAAAAAAAGAAA [XGTACX_site3721] | 7.79 ± 0.34
47 | ATATATCTTTATATAGTGCATTAAATATGTTGTAAT [GTGCAC_site9953] | 11.5 ± 0.54
48 | ATACTAAAAATGAATGTACACATATATATATATATA [TGCATGCA_negctrl_site209] | 9.48 ± 0.42
49 | AAAAAAAATAAAAATAGTACCCAAAAAATTATGAAT [XGTACX_site6641] | 7.8 ± 0.64
50 | TATAATAAAATATTTTGTACGTATATTTTAATATTT [XGTACX_site2582] | 7.75 ± 0.3
51 | AATTAATAAATATTATATGTTAATATTTTTTTTGTT [CACACA_negctrl_site1692] | 7.18 ± 0.49
52 | AGAGGAGTAAAACAAAACAAAGAGAAATAAACACAC [XGTACX_negctrl_site386] | 9.17 ± 0.26
53 | AAAAAATATAATAATTGTACACATGCACACACAAAT [XGTACX_site1563] | 8.25 ± 0.48
54 | TTTCATATCTTGTCAAGTACATATTTTTATTTTCTT [XGTACX_site2160] | 7.6 ± 0.62
55 | ACTTAATATCGGTACACACACAAGATAAGAATTATG [CACACA_site894] | 8.06 ± 0.28
56 | AAAAAGGAAATAATAACACACATTAGTAATTATAAA [CACACA_site7573] | 7.47 ± 0.68
57 | CACAGACACGGACACACACACACAAAAAAAAAAAGA [CACACA_site4436] | 8.12 ± 0.014
58 | TATTTTCTTTAATTAATTATTGGTCTGAATGGGGTT [CACACA_negctrl_site418] | 7.61 ± 0.41
59 | TATTAAAAAAATATTTGTACTTAAAATTTATTATAT [XGTACX_site1467] | 7.62 ± 0.39
60 | ACAAAAAAAAAAAAAAAAAGAAGAATATATCTATAT [CACACA_negctrl_site759] | 7.3 ± 0.52
61 | TATCATACAATATTCACACAAATAAATTGACATATT [CACACA_site5891] | 7.46 ± 0.49
62 | AAGAGTTAAAAAAATACACACATATAGATTTTTTTA [CACACA_site7018] | 7.61 ± 0.51
63 | ATAAATAAAAAAGAAAGAAAGAAAGAAACAAACAAA [CACACA_negctrl_site1198] | 7.46 ± 0.73
64 | TATTAATGCAAATGTTATATGTGCATACATAAATGT [CACACA_negctrl_site790] | 8.76 ± 0.15
65 | TATTACATACATATCTGTACATATATTAATGCACAA [XGTACX_site3315] | 11.6 ± 1
66 | AAAAATATTAAAAAAGGTACACAGCATATCTCTTTT [XGTACX_site65] | 7.62 ± 0.63

Row | Sequence | gcPBM binding intensity (ln)
67 | TCCAATTGTTCTAGTGTGCACATAAATAAATCTCAT | 10.1 ± 0.16
68 | TTCATATTCGATAAAGTGCATTAATTTTATTTATCA | 11.3 ± 0.73
69 | AATACTTTTTTCTGTACACACTTGATTTACTATAAT [CACACA_site5544] | 8.4 ± 0.45
70 | CAATTATTGTAATGCATGCACTGAATATAAAAAGAA | 9.92 ± 0.54
71 | TTTATATGTATTAAGTGTACACATATAATGTATTTT [XGTACX_site16] | 8.04 ± 0.13
72 | AAATTAATGTATATGTGAAGCAAGGGATGCGGCAGA [CACACA_negctrl_site406] | 8.28 ± 0.92
73 | ATATATATATATATATAATATATAATATATATATAT [CACACA_negctrl_site96] | 9.18 ± 0.31
74 | AAATATTATGTACGCACACACATTTTTAATATATAA [CACACA_site3851] | 8.53 ± 0.25
75 | TTATTTACAACTTCAAATTATGTGTAATACTACTAT [CACACA_negctrl_site741] | 7.71 ± 0.5
76 | TAAAAAAAAACTCATGCACACAATATTATGAAAAAG [CACACA_site665] | 8.26 ± 0.58
77 | TTTTTTTCTTTTTACATACACACAAAAAAATAAAAT [CACACA_site580] | 7.98 ± 0.45
78 | AGCACATTATTCAAAAGTACAAATAGGTATTGTATA [XGTACX_site6107] | 7.63 ± 0.49
79 | AATATAAAAAAAAAAAAAAAAAAAAAAAAAAAGACA [CACACA_negctrl_site983] | 7.66 ± 0.31
80 | TTACGAATTACATATTGTACATATGCACAATTTTAA [XGTACX_site6802] | 8.56 ± 0.16
81 | AATTAAAATACAAATGTATGCATGTCTCATATAGAA [TGCATGCA_site822] | 7.66 ± 0.7
82 | TACATAATTTAAAATTTTATAAGTTGTAATTCGTTT [XGTACX_negctrl_site308] | 7.32 ± 0.54
83 | TATTTATAAAAAGATTGTACATTTTTTATTATTGTA [XGTACX_site6016] | 7.45 ± 0.38
84 | ATAAAACAACAAAGAAAATGAAAAAGTAAAAACATA [CACACA_negctrl_site596] | 7.71 ± 0.64
85 | AAAAAAAAAAAAAAAACACACATATATCTATAATAT [CACACA_site6665] | 8.55 ± 0.35
86 | TATACAAAATATTTTACACACACATATATATACATA [CACACA_site2616] | 8.03 ± 0.46
87 | CATTATTTATTTTAATGTACTTATTTTTAAATTGGT [XGTACX_site8038] | 7.875 ± 0.007
88 | AGTGCATACATGAATTGTACTTTAAAATAAATTCTA [XGTACX_site8156] | 9.7 ± 0.52
